Laboratory results taken from PMC4336329 (PLoS ONE, 2015).
Out of some 310,000 compounds screened, about 2,200 (0.71%) showed an effect of 50% or more. The effect is printed as a negative number. The list shows a part of the results.

What follows are molecules tested against human ether-à-go-go-related gene (hERG) potassium channel (human, UniProt Q12809) (assay: primary screen, population patch clamp on CHO cells stably expressing hERG).
Sequence of human ether-à-go-go-related gene (hERG) potassium channel (Q12809 whole entry, looked up): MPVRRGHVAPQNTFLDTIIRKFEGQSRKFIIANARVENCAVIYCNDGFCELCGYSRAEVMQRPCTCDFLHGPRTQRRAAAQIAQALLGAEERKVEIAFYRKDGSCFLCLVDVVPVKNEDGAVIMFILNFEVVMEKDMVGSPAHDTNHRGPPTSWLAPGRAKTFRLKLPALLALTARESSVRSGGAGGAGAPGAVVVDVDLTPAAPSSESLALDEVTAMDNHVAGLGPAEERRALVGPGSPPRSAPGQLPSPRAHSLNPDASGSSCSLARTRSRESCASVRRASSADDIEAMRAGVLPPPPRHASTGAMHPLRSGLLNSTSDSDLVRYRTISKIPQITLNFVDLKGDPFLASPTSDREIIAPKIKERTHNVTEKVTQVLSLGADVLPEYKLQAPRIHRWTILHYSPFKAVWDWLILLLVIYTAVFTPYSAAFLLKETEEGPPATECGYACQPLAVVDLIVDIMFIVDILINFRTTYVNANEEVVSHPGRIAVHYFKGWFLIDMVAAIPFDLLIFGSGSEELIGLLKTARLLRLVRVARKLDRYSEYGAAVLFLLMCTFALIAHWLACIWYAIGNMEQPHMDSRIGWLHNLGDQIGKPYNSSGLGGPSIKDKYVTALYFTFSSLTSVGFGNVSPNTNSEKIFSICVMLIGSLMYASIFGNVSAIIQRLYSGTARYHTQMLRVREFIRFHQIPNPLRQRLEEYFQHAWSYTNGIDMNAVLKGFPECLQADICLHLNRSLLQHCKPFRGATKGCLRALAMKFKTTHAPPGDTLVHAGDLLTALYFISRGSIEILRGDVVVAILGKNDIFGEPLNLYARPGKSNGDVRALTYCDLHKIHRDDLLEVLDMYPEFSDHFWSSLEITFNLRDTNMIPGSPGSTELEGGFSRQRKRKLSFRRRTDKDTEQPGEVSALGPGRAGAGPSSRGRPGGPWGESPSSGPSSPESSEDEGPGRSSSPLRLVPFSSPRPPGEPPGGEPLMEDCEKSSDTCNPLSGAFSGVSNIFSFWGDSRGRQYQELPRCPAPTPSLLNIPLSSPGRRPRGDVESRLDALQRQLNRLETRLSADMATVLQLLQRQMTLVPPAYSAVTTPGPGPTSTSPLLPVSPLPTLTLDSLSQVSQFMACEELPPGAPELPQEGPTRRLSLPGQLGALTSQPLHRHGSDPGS

First: Cc1c(C(=O)N(CCO)Cc2ccccc2)oc2c(F)cccc12
Second: N#C/C(C(=O)NCc1ccccc1)=C1\SC(CCO)C(=O)N1c1ccccc1 (centres unmarked)
The “hERG current change (%, negative = inhibition) at 1uM” value of the first is lower: -3.51% for the first, 6.42% for the second.

First: Cc1nc2cc(-c3ccccc3)nn2c(C)c1CCC(=O)NC(C)c1ccc2c(c1)OCCO2 (centres unmarked)
Second: COCc1nnc(SCC(=O)NC(C)c2ccccc2)n1-c1ccccc1 (centres unmarked)
The “hERG current change (%, negative = inhibition) at 1uM” value of the first is lower: -5.37% for the first, 10.7% for the second.

Compared with `CCOC(=O)CNC(=O)C1c2ccccc2Oc2ccccc21`, `O=C(Nc1ccccc1F)C1COc2ccccc2O1` (centres unmarked) is higher in “hERG current change (%, negative = inhibition) at 1uM” value: 8.89% for the first, 13.9% for the second.

Going from `C/C(=C\C(=O)C(F)(F)F)Nc1cc(C)cc(C)c1` to `CCOC(=O)C(NC(=O)Cc1ccccc1)(Nc1cc(C)on1)C(F)(F)F` (centres unmarked), the “hERG current change (%, negative = inhibition) at 1uM” value falls from 13.7% to 7.59%.

Compared with `CN(C)CCCN(C(=O)c1ccc(S(=O)(=O)N(C)C)cc1)c1nc2ccc(F)cc2s1.Cl`, `COc1ccccc1N(C)S(=O)(=O)c1ccc(C(=O)NC(C)(C)C)cc1` is higher in “hERG current change (%, negative = inhibition) at 1uM” value: 0.988% for the first, 6.73% for the second.

Going from `COc1ccccc1OCC(=O)Nc1ccc(NC(=O)COc2ccccc2OC)cc1` to `O=C(COC(=O)/C=C/c1ccc(F)cc1)Nc1ccccc1-c1ccccc1`, the “hERG current change (%, negative = inhibition) at 1uM” value falls from 13.7% to 13.2%.

Going from `CCOC(=O)c1c(NC(=O)Cc2ccccc2)sc2c1CC(C)(C)NC2(C)C` to `Cc1cc(C(=O)OCC(=O)Nc2ccccc2Cl)c(C)o1`, the “hERG current change (%, negative = inhibition) at 1uM” value rises from -7.92% to 8.72%.

Going from `CCCN1CCN(S(=O)(=O)c2ccc(-c3cc(C)no3)s2)CC1` to `Cc1ccc(CN2CCCN(C)CC2)c(C)c1`, the “hERG current change (%, negative = inhibition) at 1uM” value rises from 6.29% to 9.13%.

Going from `Cc1nc(NC(=O)c2cccnc2Cl)sc1C` to `CCN(CC)S(=O)(=O)c1ccc(NC(=O)c2cccnc2Cl)c(NC(=O)c2cccnc2Cl)c1`, the “hERG current change (%, negative = inhibition) at 1uM” value falls from 8.49% to 5.29%.

First: O=C(NN1C(=O)C2C3C=CC(C4CC34)C2C1=O)c1ccc(Br)cc1 (centres unmarked)
Second: COc1ccc(OC(=O)CN2C(=O)C3C4CCC(C4)C3C2=O)cc1 (centres unmarked)
The “hERG current change (%, negative = inhibition) at 1uM” value of the first is lower: 8.3% for the first, 12.4% for the second.

First: CCOC(=O)c1c(C)nc2cc(C)ccn12
Second: CCOC(=O)c1sc(=S)n(CC)c1N
The “hERG current change (%, negative = inhibition) at 1uM” value of the first is lower: -0.0398% for the first, 10.5% for the second.

Going from `O=C1CC(c2ccc(F)cc2)CC2=C1C(c1ccc([N+](=O)[O-])o1)Nc1ccccc1N2` (centres unmarked) to `COc1ccc(C2C(C(=O)Nc3cccc(OC)c3)c3ccccc3C(=O)N2C)cc1` (centres unmarked), the “hERG current change (%, negative = inhibition) at 1uM” value falls from 4.59% to -0.335%.

Compared with `COc1c(Br)cc([N+](=O)[O-])c(OC)c1C(=O)NC(=O)Nc1cc(Cl)cc(Cl)c1`, `CCN(c1cccc(C)c1)C(C(=O)Nc1ccc(OC)cc1)c1cc2c(cc1[N+](=O)[O-])OCO2` (centres unmarked) is higher in “hERG current change (%, negative = inhibition) at 1uM” value: 10.4% for the first, 13.9% for the second.

Compared with `Cc1cc(C(=O)N/N=C/c2c(C)nn(-c3ccccc3)c2C)n[nH]1`, `O=C(Cn1cnc2c(cnn2-c2ccc(Cl)cc2)c1=O)NCCc1ccccc1` is higher in “hERG current change (%, negative = inhibition) at 1uM” value: 11.6% for the first, 13.8% for the second.

First: COC(=O)C1CN(C(=O)C(C)Oc2cc(C)ccc2C(C)C)c2ccccc2O1 (centres unmarked)
Second: CCOC(=O)C1CN(S(=O)(=O)c2ccc(C)cc2)c2ccccc2O1 (centres unmarked)
The “hERG current change (%, negative = inhibition) at 1uM” value of the first is lower: 10.3% for the first, 18.3% for the second.

First: COc1ccc(-n2c(=S)[nH]c3cc(C(=O)NCc4ccco4)ccc3c2=O)c(OC)c1
Second: COc1ccc2c(-c3ccccc3)cc(=O)[nH]c2c1
The “hERG current change (%, negative = inhibition) at 1uM” value of the first is higher: 5.6% for the first, 2.58% for the second.

First: CC1CCCC(C)N1C(=O)CSCc1ccc(Cl)cc1 (centres unmarked)
Second: C/C=C(\C)C(=O)NCCN1C2=NC[C@@H](C)N2C[C@@H]1Cc1ccc(OC)cc1
The “hERG current change (%, negative = inhibition) at 1uM” value of the first is lower: -20.2% for the first, 11.4% for the second.

First: NC(=O)c1ccc(SCC(=O)OCC(=O)N2CCN(C(=O)c3ccco3)CC2)c([N+](=O)[O-])c1
Second: Cc1ccc(S(=O)(=O)N2CCN(C(=O)c3ccc(-n4cncn4)c([N+](=O)[O-])c3)CC2)cc1C
The “hERG current change (%, negative = inhibition) at 1uM” value of the first is higher: 13.5% for the first, -28.4% for the second.

Compared with `O=C(Nc1ccc(Br)cc1)C1C2C=CC3(O2)C1C(=O)N(CCN1CCCCC1)C3C(=O)NC1CCCCC1` (centres unmarked), `COc1ccc(CN2CCC(n3nccc3NC(=O)C3CCCC3)CC2)c(OC)c1` is lower in “hERG current change (%, negative = inhibition) at 1uM” value: 6.17% for the first, -70.6% for the second.

Going from `COc1ccccc1/C=C/C=N/N1CCN(Cc2cccc3ccccc23)CC1` to `COc1cccc(/C=N/c2nc3ccccc3n2C)c1O`, the “hERG current change (%, negative = inhibition) at 1uM” value rises from 6.23% to 11.2%.

Compared with `COc1ccc(-n2c(SCC(=O)O)nnc2-c2ccc(NC(=O)c3ccccc3)cc2)cc1`, `CCn1c(COc2cccc(C)c2)nnc1SCC(=O)Nc1cccc(C(=O)OC)c1` is lower in “hERG current change (%, negative = inhibition) at 1uM” value: 14.7% for the first, 13.6% for the second.

First: O=C(Nc1nc2ccccc2[nH]1)c1ccc(Br)o1
Second: COc1ccc(CCNCc2ccccc2F)cc1OC.Cl
The “hERG current change (%, negative = inhibition) at 1uM” value of the first is lower: -1.28% for the first, 7.24% for the second.

Compared with `CNC(=S)N(CCc1c(C)[nH]c2ccc(C)cc12)Cc1cccs1`, `COc1ccc2[nH]c(C)c(CCN3C(=O)OC(C)(C)C3(C)O)c2c1` (centres unmarked) is higher in “hERG current change (%, negative = inhibition) at 1uM” value: 9.37% for the first, 11.6% for the second.

Compared with `O=C(Nc1ccsc1C(=O)O)c1cccc(C(F)(F)F)c1`, `O=S(=O)(c1cccc(C(F)(F)F)c1)N1CCN(c2cnccn2)CC1` is lower in “hERG current change (%, negative = inhibition) at 1uM” value: 19.8% for the first, -1.19% for the second.

Compared with `O=C(COc1ccc2ccccc2c1)NNC(=O)C(=O)Nc1ccccc1`, `COCC(C)NC(=O)/C(=C/c1ccccc1)c1ccccc1` (centres unmarked) is lower in “hERG current change (%, negative = inhibition) at 1uM” value: 10.6% for the first, -9.73% for the second.

Compared with `COc1ccc(S(=O)(=O)N2CCN(c3ccccn3)CC2)cc1[N+](=O)[O-]`, `COc1ccccc1NC(=O)C1CCN(S(=O)(=O)c2ccc3c(c2)CC(C)N3C(C)=O)CC1` (centres unmarked) is higher in “hERG current change (%, negative = inhibition) at 1uM” value: 0.291% for the first, 9.78% for the second.

Compared with `CN(C)S(=O)(=O)c1cccc(-c2nn(-c3ccccc3)cc2/C=C(/C#N)C(=O)NCc2ccco2)c1`, `CN(C)S(=O)(=O)c1cccc(COc2cccnc2[N+](=O)[O-])c1` is lower in “hERG current change (%, negative = inhibition) at 1uM” value: 3.96% for the first, 3.18% for the second.

Going from `O=C(c1cccc(OC2CCN(Cc3cccc(OCCO)c3)CC2)c1)N1CCCC1` to `COc1ccc(NC(=O)C2CCN(C(=O)Cc3ccccc3)CC2)c(OC)c1`, the “hERG current change (%, negative = inhibition) at 1uM” value rises from 13.6% to 22.1%.

First: CCCCN(C(=O)NC(=O)Nc1cccc(C)c1C)S(C)(=O)=O
Second: COC(=O)c1c(NC(=O)COC(=O)CCNS(=O)(=O)c2ccc(NC(C)=O)cc2)sc(C)c1C
The “hERG current change (%, negative = inhibition) at 1uM” value of the first is higher: 13.9% for the first, 5% for the second.

First: COc1cc(C2C(C(=O)Nc3ccc(F)cc3)=C(C)Nc3nc(CCCO)nn32)cc(OC)c1OC (centres unmarked)
Second: COc1ccc(C(=O)N2CCc3cc(OC)c(OC)cc3C2c2ccc(OC)c(OC)c2)cc1OC (centres unmarked)
The “hERG current change (%, negative = inhibition) at 1uM” value of the first is lower: 8.13% for the first, 12.1% for the second.

First: COc1ccccc1NS(=O)(=O)c1cccc(C(=O)OCC(=O)NC2CC2)c1
Second: Cc1ccc(NC(=O)COC(=O)c2ccc3c(=O)n4c(nc3c2)CCC4)c(Br)c1
The “hERG current change (%, negative = inhibition) at 1uM” value of the first is higher: 16.8% for the first, 12.3% for the second.

Going from `CSc1ccc(CNC(C)(C)CO)cc1.Cl` to `CSc1ccccc1C(=O)N1CCC(CCC(=O)NCc2ccc(F)cc2)CC1`, the “hERG current change (%, negative = inhibition) at 1uM” value rises from -2.43% to 5.09%.

Going from `C=CCN1C(=O)c2oc3ccccc3c(=O)c2C1c1ccc(O)c(OC)c1` (centres unmarked) to `O=C(O)c1ccccc1-n1c(-c2ccccc2)cc2c1CCCC2=O`, the “hERG current change (%, negative = inhibition) at 1uM” value rises from 4.84% to 9.19%.

First: Cc1ncc(CN2CCCC(C(=O)c3sccc3C)C2)s1 (centres unmarked)
Second: CC1CC(C)CN(C(=O)COC(=O)c2ccc3ncsc3c2)C1 (centres unmarked)
The “hERG current change (%, negative = inhibition) at 1uM” value of the first is higher: 12.5% for the first, -0.416% for the second.

Going from `O=C1OCCN1CCN(CN1C(=O)CCC1=O)CN1C(=O)CCC1=O` to `CN(CCC1CCOCC1)C(=O)C1CCC(=O)N(CCc2ccccc2)C1` (centres unmarked), the “hERG current change (%, negative = inhibition) at 1uM” value falls from 8.43% to -3.88%.

Compared with `O=C(C1CCN(S(=O)(=O)N2CCC3(CC2)OCCO3)CC1)N1CCOCC1`, `Cc1cc(OCC(=O)N2CCC(C(N)=O)CC2)c2c3c(c(=O)oc2c1)CCCC3` is lower in “hERG current change (%, negative = inhibition) at 1uM” value: 19.6% for the first, 1.1% for the second.

Compared with `Cc1cc(N2C(=O)C3CC=CC(C)C3C2=O)no1` (centres unmarked), `Cn1cc(S(=O)(=O)NCc2cccs2)c(=O)n(C)c1=O` is higher in “hERG current change (%, negative = inhibition) at 1uM” value: 7.98% for the first, 8.34% for the second.

Going from `CC(NC(=O)CN1C(=O)NC2(CCCCCC2)C1=O)c1ccccc1Cl` (centres unmarked) to `COc1cccc(CN(C(=O)Cc2c[nH]c3ccccc23)C(C(=O)NC2CCCCC2)c2cccs2)c1` (centres unmarked), the “hERG current change (%, negative = inhibition) at 1uM” value rises from 4.85% to 22.7%.

Going from `COc1ccc(/C=C/C2=CCN(C)CC2)cc1.Cl` to `COc1cccc(CN2CCc3[nH]c(=S)[nH]c(=O)c3C2)c1`, the “hERG current change (%, negative = inhibition) at 1uM” value rises from 2.47% to 7.18%.

First: S=C(NCc1ccc(Cl)cc1)Nc1ccc(Cl)cc1Cl
Second: COC(=O)C(Cc1ccc(O)cc1)NC(=O)CCC(=O)Nc1ccc(S(N)(=O)=O)cc1 (centres unmarked)
The “hERG current change (%, negative = inhibition) at 1uM” value of the first is higher: 12% for the first, 7.5% for the second.

Going from `Cc1nc(N2CCN(Cc3ccccc3)CC2)c(C#N)c2c1COC(C)(C)C2` to `CCCCCCn1c(N)c(C(=O)NCCN2CCOCC2)c2nc3ccccc3nc21`, the “hERG current change (%, negative = inhibition) at 1uM” value falls from 12.7% to 9.09%.

First: O=C(O)CCC(=O)N1N=C(c2ccc(Br)cc2)CC1c1cccc(Br)c1 (centres unmarked)
Second: CC(C)CC(=O)N1CCC(N(CCc2ccccc2)Cc2ccccc2)CC1.O=C(O)C(=O)O
The “hERG current change (%, negative = inhibition) at 1uM” value of the first is higher: 11.3% for the first, 7.09% for the second.

Going from `CCCc1nnc(NC(=O)CCC(=O)NC2CCCC2)s1` to `Nc1nc(SCc2cccc([N+](=O)[O-])c2)n[nH]1`, the “hERG current change (%, negative = inhibition) at 1uM” value falls from 13.9% to 9.78%.
